Experimental data as given in the supplement of paper PMC12217912.
Some of the results follow. Sequences were assembled here from the parent chain. Values near 0.05 are background.

B1: TEV protease; numbered along this chain (parent)
chain: MGESLFKGPRDYNPISSSICHLTNESDGHTTSLYGIGFGPFIITNKHLFRRNNGTLVVQSLHGVFKVKDTTTLQQHLVDGRDMIIIRMPKDFPPFPQKLKFREPQREERICLVTTNFQTKSMSSMVSDTSCTFPSGDGIFWKHWIQTKDGQCGSPLVSTRDGFIVGIHSASNFTNTNNYFTSVPKNFMELLTNQEAQQWVSGWRLNADSVLWGGHKVFMVKPEEPFQPVKEATQL

Variants of: B1
Assay: raw area under fraction-flipped curve 0-4 h after induction (AUC4h, not background-subtracted), DNA-recorder readout of cleavage of the substrate (dimensionless); higher = more cleavage of the substrate by the protease variant
Details: temperature: 34 °C; time window: 0-4 h after rhamnose induction
Experimental: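 In vivo DNA recorder in E. coli TOP10(DE3) ΔrhaA at 34 °C. Each TEVp single-site mutant (parent TEVp 0) is paired with a single-site variant of the 7-mer TEVs (canonical ENLYFQ|S). The substrate sits between flexible linkers in a Bxb1-sfGFP-TEVs-SsrA fusion, so cleavage stabilises Bxb1 and speeds flipping of a recombination array, read by NGS. The value is the raw area under the fraction-flipped curve over 0-4 h after rhamnose induction (AUC4h), with ≥20 reads per time point. It is not background-subtracted; inactive controls average about 0.047.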
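Further: Bxb1 expression induced with 0.2% (w/v) L-rhamnose at OD600 near 0.5, cultures sampled hourly, flipped fraction per protease–substrate barcode pair counted by paired-end Illumina sequencing.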

| Variant | area with substrate ENLAFQS | area with substrate ENLDFQS | area with substrate ENLEFQS | area with substrate ENLFFQS | area with substrate ENLHFQS | area with substrate ENLKFQS | area with substrate ENLNFQS | area with substrate ENLPFQS | area with substrate ENLTFQS | area with substrate ENLWFQS | area with substrate ENLCFQS | area with substrate ENLGFQS | area with substrate ENLIFQS | area with substrate ENLMFQS | area with substrate ENLQFQS | area with substrate ENLRFQS | area with substrate ENLSFQS | area with substrate ENLVFQS | area with substrate ENLLFQS |
| --- | --- | --- | --- | --- | --- | --- | --- | --- | --- | --- | --- | --- | --- | --- | --- | --- | --- | --- | --- |
| H168F | 0.0482 | 0.0506 | 0.0689 | 0.0601 | 0.0611 | 0.0574 | 0.0472 | 0.0644 | 0.0527 | 0.0635 |  |  |  |  |  |  |  |  |  |
| P96N | 0.0704 | 0.0661 | 0.0549 | 0.0985 | 0.0691 | 0.0734 | 0.0716 | 0.054 | 0.0753 | 0.0649 | 0.0827 | 0.0677 | 0.075 | 0.0664 | 0.0844 | 0.0771 | 0.0423 | 0.0926 |  |
| P96V | 0.0686 | 0.0655 | 0.0697 | 0.0832 | 0.0803 | 0.0741 | 0.063 | 0.0553 |  | 0.0641 | 0.065 | 0.0535 |  |  | 0.0776 | 0.0814 | 0.0548 | 0.0809 | 0.0894 |
| K148A | 0.0661 | 0.107 | 0.0545 | 0.0899 | 0.0726 | 0.0983 | 0.0785 | 0.0666 | 0.0839 | 0.0324 |  | 0.059 | 0.08 |  | 0.0467 | 0.0641 | 0.0463 |  | 0.0689 |
| M88Q | 0.0202 | 0.0549 | 0.0661 | 0.0942 |  | 0.0504 |  | 0.0442 |  | 0.0541 |  |  | 0.0848 | 0.0756 |  |  |  |  |  |
| P14I | 0.0613 | 0.0625 | 0.0748 | 0.0831 |  | 0.076 | 0.0669 | 0.0528 | 0.0614 |  | 0.0853 | 0.0633 | 0.0557 | 0.063 | 0.066 | 0.0741 | 0.0619 | 0.077 | 0.0675 |
| G136W | 0.0597 | 0.0628 | 0.0603 | 0.0823 |  | 0.0805 | 0.0609 |  |  | 0.0548 | 0.0738 | 0.0626 | 0.0647 |  | 0.0677 |  | 0.0847 | 0.115 |  |
| S16Y | 0.0674 | 0.0685 | 0.0549 | 0.0964 | 0.0678 |  | 0.0729 | 0.0668 | 0.0717 | 0.0707 |  |  |  |  | 0.0918 |  | 0.0651 |  | 0.0675 |
| V157F | 0.0591 | 0.0633 | 0.0608 | 0.0855 | 0.0472 | 0.0637 | 0.0595 | 0.0593 |  |  | 0.0627 |  | 0.0763 |  | 0.0707 | 0.0647 | 0.0538 |  | 0.0638 |
| W203A | 0.0626 | 0.064 | 0.0677 | 0.0527 | 0.0618 | 0.0623 | 0.0661 | 0.0582 |  |  | 0.0651 |  |  |  | 0.0737 |  | 0.0701 |  |  |
| P40I | 0.0633 |  | 0.0419 | 0.0762 | 0.0759 | 0.0776 | 0.0584 | 0.0596 |  |  | 0.0356 | 0.118 | 0.0705 |  | 0.0938 | 0.0584 | 0.0619 | 0.079 |  |
| L48Q | 0.0637 | 0.062 |  | 0.0722 | 0.0525 | 0.066 | 0.0623 | 0.0579 |  |  | 0.0534 | 0.0533 | 0.0737 |  | 0.0714 | 0.0558 | 0.0519 |  | 0.0552 |
| H21P | 0.0494 | 0.0549 | 0.0553 | 0.0525 | 0.047 | 0.0537 | 0.0604 | 0.057 | 0.0608 | 0.0555 | 0.0437 |  | 0.0618 | 0.0565 |  | 0.0406 | 0.0531 | 0.0598 |  |
